# Assay results published in PubChem BioAssay AID1508649 (National Center for Advancing Translational Sciences (NCATS), 2021).
# In all, about 43,000 compounds went through this assay and about 830 (1.9%) were called active. The inconclusive results got no clear call from the source; some entries with a clear call stand among them for comparison. Rule for the calls: active = clear falling dose curves in both reporters; inconclusive = both reporters move, but less clearly or upward; inactive = either reporter flat; the % is the NLuc reporter signal. No potency is given beside an inconclusive call; the fits are too rough.
# Experiment: Cell-based coincidence reporter assay to measure PMP22 gene transcription in S16 Pmp22-F2sN cells - Primary screen
# Details: S16 Pmp22-F2sN Schwann cells (luciferase reporters placed in the Pmp22 gene), FLuc/NLuc coincidence luminescence, 24 h; measured here: NLuc reporter readout, at 57.5 µM (top of the series)
# Method in brief: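 S16 Schwann cells carrying FLuc/NLuc coincidence reporter in the Pmp22 3' UTR treated with compound 24 h at 37C; FLuc then NLuc luminescence read sequentially by dual-luciferase reagents.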
# Potency is the fitted concentration of half-maximal effect; tags give direction and shape of the fitted curve.
row,Compound,Potency
1,COc1ccccc1Nc1nn2c(=O)c3ccc(C(=O)NC(C)c4ccccc4)cc3nc2s1 (configuration not stated),inactive
2,CCOC(=O)c1ccc(NC(=O)CSc2nc3c([nH]c4ccccc43)c(=O)n2C)cc1,active: 14.1 µM
3,O=C(CCC1N=C2c3ccccc3N=C(SCc3ccc(F)cc3)N2C1=O)NC1CCCCC1 (configuration not stated),"inconclusive [phenotype inactive, partial curve]"
4,COc1cc2cc(CNc3ccccc3)c(=O)n(CC(=O)Nc3cc(C)cc(C)c3)c2cc1OC,"inconclusive [phenotype inactive, single point]"
5,CCN(CCN(C)C)C(=O)C1CCN(S(=O)(=O)c2c(C)noc2/C=C/c2ccccc2F)CC1,"inconclusive [phenotype inactive, partial curve]"
6,Cc1ccc(-n2c(=O)c3cccnc3n2CC(=O)NCc2ccc(F)cc2)cc1C,inactive
7,O=C(NCCS(=O)(=O)N1CCN(c2cccc(Cl)c2)CC1)c1cc(=O)c2ccccc2o1,"inconclusive [phenotype inactive, single point]"
8,Cc1ccc(NC(=O)CSc2nc3ccc(NC(=O)c4ccco4)cc3s2)c(C)c1,"inconclusive [phenotype inactive, single point]"
9,COc1cccc(CNC(=O)CCCn2c(=O)c3cccn3c3cccnc32)c1OC,inactive
10,CCCCOc1ccc(C(=O)Nc2onc3c2CCCC3)cc1,inactive
11,Cc1cccc(NC(=O)CSc2nc3ccccc3c3nc(CCc4c(C)n[nH]c4C)nn23)c1,"inconclusive [phenotype inactive, single point]"
12,Cc1ccccc1OCc1nnc(SCc2cc(=O)c3ccc(C)c(C)c3[nH]2)n1C,"inconclusive [phenotype inactive, single point]"
13,CC(C)(C)OC(=O)N1CCC(c2c(C(=O)N3CCC(c4ccccc4)C3)cnn2-c2ccc(Cl)cc2)CC1 (configuration not stated),"inconclusive [phenotype inactive, single point]"
14,O=C1CN(C(=O)COc2ccc(Cl)cc2)C(c2ccc(F)cc2)c2cc(Br)ccc2N1 (configuration not stated),"inconclusive [phenotype inactive, single point]"
15,COc1ccccc1CN1CCN(C2CCN(C(=O)Nc3ccccc3)CC2)C(=O)C1=O,"inconclusive [phenotype inactive, partial curve, poor fit]"
16,Cc1cc(C)c(NC(=O)Cn2nnc(C(=O)Nc3ccc(F)cc3F)c2N)c(C)c1,"inconclusive [phenotype inactive, single point]"
17,COc1ccc(NC(=O)CCNS(=O)(=O)c2ccc3c(c2)CCN3C(=O)C2CC2)cc1Cl,active: 14.1 µM
18,CCOc1ccccc1-c1nc(SCC(=O)c2ccc(OC)c(Br)c2)n[nH]1,"inconclusive [phenotype inactive, single point]"
19,COc1cccc(CNC(=O)c2ccc(NC(=O)N3CCCCc4ccccc43)cc2)c1OC,"inconclusive [phenotype inactive, partial curve, poor fit]"

row,Compound,Potency
1,CC(=O)c1cccc(NC(=O)C(C)n2c(=O)cc(-c3ccccc3)c3c(C)nn(C)c32)c1 (configuration not stated),"inconclusive [phenotype inactive, partial curve, poor fit]"
2,CCOC(=O)c1cc(-c2ccccc2)n(CCC(=O)Nc2nc3c(C)cccc3s2)c1C,"inconclusive [phenotype inactive, partial curve]"
3,Cc1ccccc1NS(=O)(=O)c1ccc2[nH]c3c(c2c1)CCCCC3,"inconclusive [phenotype inactive, single point]"
4,O=C(COc1ccc(F)cc1)NCCc1nc2ccccc2[nH]1,inactive
5,Cc1cc2c(cc3c(SCC(=O)Nc4cccc(Cl)c4C)nnc(C)n32)o1,"inconclusive [phenotype inactive, single point]"
6,CCOc1ccc(NC(=O)Cn2nc(SC)c(S(=O)(=O)c3ccccc3)c2N)cc1,"inconclusive [phenotype inactive, single point]"
7,CCOc1ccc(NC(=O)Cn2c(=O)n(Cc3ccco3)c(=O)c3ccc(C(=O)NC4CCCC4)cc32)cc1,"inconclusive [phenotype inactive, single point]"
8,CCCn1c2ccccc2c2cnn(CC(=O)NCc3ccc(OC)cc3)c(=O)c21,"inconclusive [phenotype inactive, single point]"
9,COc1ccccc1CNC(=O)CSCc1nc(-c2ccc(OC)c(OC)c2)oc1C,inactive
10,CCOc1ccc(NC(=O)c2sc3nc4c(cc3c2N)CN(Cc2ccccc2)CC4)cc1,inactive
11,O=C(NCCCN1CCCCC1)c1[nH]c2ccccc2c1Sc1ccc(Cl)cc1,"inconclusive [phenotype inactive, single point]"
12,CN1CCN(CCCNC(=O)Cn2c(-c3cccs3)cc3cc(Cl)ccc32)CC1,"inconclusive [phenotype inactive, partial curve, poor fit]"
13,O=C(Nc1sc2c(c1C(=O)Nc1ccc(Cl)cc1)CCCC2)c1cccs1,"inconclusive [phenotype inactive, single point]"
14,CCCCOc1ccc(CNC(=O)c2ccc(-c3nc(CN4CCc5ccccc54)c(C)o3)cc2)cc1,"inconclusive [phenotype inactive, partial curve, poor fit]"
15,CCc1ccc2oc(-c3cccc(NC(=O)c4cc5ccccc5o4)c3)nc2c1,inactive
16,O=C(NCCc1csc(-c2ccc(F)cc2)n1)c1cccs1,"inconclusive [phenotype inactive, single point]"
17,O=C1CCCc2cc(S(=O)(=O)NCC3CCC(C(=O)NCc4ccccc4Cl)CC3)ccc2N1 (configuration not stated),"inconclusive [phenotype inactive, partial curve, poor fit]"
18,COc1ccc(-c2cc(C(F)(F)F)nc(SCC(=O)N3CCCCC3C)n2)cc1OC (configuration not stated),"inconclusive [phenotype inactive, single point]"
19,Cc1ccc(OCC(=O)N(Cc2ccco2)Cc2ccco2)cc1C,"inconclusive [phenotype inactive, single point]"

row,Compound,Potency
1,Cc1ccc(C)c(-c2nnc(NC(=O)c3ccc4c(c3)OCCO4)o2)c1,"inconclusive [phenotype inactive, partial curve]"
2,COc1ccc2c(Sc3ccc(Cl)cc3)c(C(=O)N3CCC(C)CC3)[nH]c2c1,"inconclusive [phenotype inactive, single point]"
3,CCOc1ccc(NC(=O)Cn2nnc(C(=O)NCCc3ccccc3)c2N)cc1,"inconclusive [phenotype inactive, single point]"
4,CCOC(=O)c1nc(Nc2ccc(C(=O)OC)cc2)c2ccccc2n1,"inconclusive [phenotype inactive, single point]"
5,CCCCOc1cccc(NC(=O)c2cccc(C(=O)Nc3cccc(OCCCC)c3)c2)c1,inactive
6,COc1cc(NC(=O)NCC2CCN(Cc3ccc(C)cc3)CC2)cc(OC)c1OC,inactive
7,CCCCN(Cc1ccccc1)C(=O)c1oc(=O)c2ccccc2c1-c1ccc(C)cc1,"inconclusive [phenotype inactive, single point]"
8,Cn1nccc1C(=O)NCc1ccc2c(c1)CCN2C(=O)c1ccc(F)cc1,"inconclusive [phenotype inactive, single point]"
9,Cc1ccc(C)c(Cn2nnc(C(=O)NCc3ccc(Cl)cc3Cl)c2N)c1,"inconclusive [phenotype inactive, single point]"
10,COc1ccc(OC)c(NC(=O)c2c(NCc3ccc(C)o3)sc3c2CCC(C)C3)c1 (configuration not stated),"inconclusive [phenotype inactive, single point]"
11,COc1ccc(C(=O)NCc2ccc3c(c2)CCN3C(=O)c2ccncc2)cc1,"inconclusive [phenotype inactive, partial curve, poor fit]"
12,COc1ccc2c(c1)-c1nc(NC(=O)c3cc(Cl)ccc3OC)sc1CC2,active: 17 µM
13,Cc1cc(OC(=O)c2cc(-c3ccc4c(c3)OCCO4)on2)ccc1Cl,inactive
14,Cc1nc(-n2nc(C)c(Cc3ccccc3Cl)c2C)sc1C(=O)N1CCCCC1C (configuration not stated),"inconclusive [phenotype inactive, partial curve, poor fit]"
15,CC1=C(C(=O)OCc2ccc(C)cc2)C(c2c(Cl)cccc2Cl)CC(=O)N1 (configuration not stated),inactive
16,COC(=O)c1cc(S(=O)(=O)NCC2CCN(Cc3cc(C)ccc3C)CC2)c[nH]1,"inconclusive [phenotype inactive, partial curve, poor fit]"
17,COCCN1C(=O)c2[nH]nc(-c3ccccc3O)c2C1c1ccc(OCc2ccccc2)c(OC)c1 (configuration not stated),"inconclusive [phenotype inactive, partial curve, poor fit]"
18,O=C(Nc1cc(Cl)cc(Cl)c1)c1ccc(F)c(S(=O)(=O)NC2CCCC2)c1,"inconclusive [phenotype inactive, single point]"
19,COc1ccc2c(c1)c1c(c(=O)n(-c3ccccc3C)c(=O)n1CC(=O)NCc1ccc(C)cc1)n2C,"inconclusive [phenotype inactive, single point]"
